PubChem BioAssay AID1347120 (National Center for Advancing Translational Sciences (NCATS), 2019)
Hit rate of the full screen: of about 390,000 compounds, about 930 (0.24%) were called active. Inconclusive means that the source gave no clear call. Such entries were picked first, then a sample of the others. Calls come from the whole dose curve; as a rule, active = well fitted activation curve with a large enough effect; inconclusive = small, poorly fitted or top-dose-only effect; inactive = no such curve, though single readings can be large or run the other way. Potencies of inconclusive entries are doubtful fits and often do not repeat.
Potency is the fitted concentration of half-maximal effect; tags give direction and shape of the fitted curve.

Assay: qHTS for Suppressors of FUS Proteinopathy: Primary screen using FUS-linked yeast assay; note: nearly all actives have a fitted effect of over 55% in size;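 for growth rescue (activation): plate controls were DMSO vehicle for no effect and reference control for full effect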
Conditions: S. cerevisiae FUS-expressing, OD600, 24 h; Potency: growth rescue; growth rescue (activation): at 76.6 µM (top of the series)
Summary of the method: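 Galactose (2%) drives FUS expression in yeast precultured in raffinose; seeding density OD 0.005. Test compounds incubated 24hr at 30C and 99% humidity before absorbance at 600 nm was measured.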
In the case of `C=CCn1c(C)cc(-c2csc(N)n2)c1C`, the Potency is reported as inconclusive: 8.91 µM [activator, partial curve, poor fit]. With `Cc1cc(OCc2cc(C(=O)NC(C)c3c(C)nn(C)c3C)no2)cc(C)c1Cl` (configuration not stated) the Potency was inconclusive: 50.1 µM [activator, single point]. For `Cc1ccc([N+](=O)[O-])cc1S(=O)(=O)Nc1ccc(O)c(Sc2ncn[nH]2)c1`, the Potency was inconclusive: 8.91 µM [activator, partial curve]. In the case of `CCOC(=O)C1=C(CCl)NC(=O)NC1c1ccc2c(c1)OCO2` (configuration not stated), the Potency is reported as “inactive”. For `CCOc1ccc(C(=O)C(C)OC(=O)Cn2cnc3c2c(=O)n(C)c(=O)n3C)cc1` (configuration not stated), the Potency was “inactive”. With `CCCC(C(=O)NC1CCCC1)N(C(=O)Cn1nnc(-c2ccc(C)o2)n1)c1cccc(O)c1` (configuration not stated) the Potency was inconclusive: 50.1 µM [activator, single point]. With `C[C@]12C(=O)N(c3cccc(Cl)c3)C(=O)N1[C@@H]1c3ccccc3OC[C@@H]1[C@H]2c1ccccc1` the Potency was inconclusive: 31.6 µM [activator, single point]. For `O=c1c2ccc([N+](=O)[O-])cc2ncn1CCOc1cccc(Br)c1`, the Potency was “inactive”. In the case of `CCc1nnc(SCc2nc(-c3cccc(Cl)c3)oc2C)c2cc3sc(C)cc3n12`, the Potency is reported as “inactive”. In the case of `O=C(c1ccoc1)N1CCN(c2cc(-c3ccco3)nc3cc(-c4ccco4)nn23)CC1`, the Potency is reported as inconclusive: 8.91 µM [activator, partial curve]. In the case of `CCOC(=O)c1c(NC(=O)COc2ncnc3ccccc23)sc(C(C)=O)c1C`, the Potency is reported as inconclusive: 12.6 µM [activator, partial curve]. In the case of `COc1ccc(/C=C/C(=O)Nc2cccc(S(=O)(=O)NC3=NCCCCC3)c2)c(OC)c1`, the Potency is reported as inconclusive: 39.8 µM [activator, single point]. In the case of `Clc1ccc(-n2c(SCc3cccc4ccccc34)nnc2-c2ccccc2)cc1`, the Potency is reported as inconclusive: 14.1 µM [activator, partial curve]. For `Cc1cccc(CN2C(=O)c3ccccc3S(=O)(=O)c3ccc(C(=O)N(C)Cc4ccccc4)cc32)c1`, the Potency was inconclusive: 25.1 µM [activator, partial curve, poor fit]. In the case of `O=C(CSc1ccccc1)NCC(c1ccco1)N1CCCCC1` (configuration not stated), the Potency is reported as inconclusive: 50.1 µM [activator, single point]. With `Cc1ccc(/C=N/N2CCCCC2)o1` the growth rescue (activation) was inconclusive: -81.2% [activator]. For `CCOc1ccc(Cn2c(=O)oc3ccc(C)cc32)cc1OC`, the Potency was “inactive”. With `Cc1ccccc1C(=O)N1CCN(c2ncnc3c2cnn3-c2ccccc2)CC1` the Potency was inconclusive: 39.8 µM [activator, partial curve, poor fit]. With `CCOC(=O)N1CCC(N2Cc3cccc(C(=O)Nc4ccc(CC)cc4)c3C2=O)CC1` the Potency was “inactive”. In the case of `O=C1CSC(c2nn(-c3ccccc3)cc2-c2cc3ccccc3oc2=O)N1Cc1ccco1` (configuration not stated), the Potency is reported as inconclusive: 39.8 µM [activator, single point]. In the case of `Cc1nn(-c2ccccc2)c(N2CCCC2)c1/C=N/NC(=O)c1cc(-c2cccnc2)nc2ccccc12`, the Potency is reported as inconclusive: 7.94 µM [activator, full curve]. For `COc1ccc(Nc2nnc(-c3ccc(C)c(S(=O)(=O)NCc4nc5ccccc5[nH]4)c3)c3ccccc23)cc1`, the Potency was inconclusive: 50.1 µM [activator, single point]. With `N#Cc1c(N2CCOCC2)nc(-c2ccco2)c2c1CCCC2` the Potency was inconclusive: 7.08 µM [activator, partial curve, poor fit]. For `CCOc1ccc(OCC)c(NC(=O)CSc2nnnn2CC)c1`, the Potency was “inactive”. In the case of `COC(=O)[C@]12C[C@H](CC(=O)N3CCCCC3)C(=O)N(Cc3cccc4ccccc34)C1=C[C@H](COCc1ccccc1)O[C@@H]2C`, the Potency is reported as inconclusive: 25.1 µM [activator, single point]. In the case of `CCc1cc(C(=O)N2CCCC(C(=O)c3cccc(OC(C)C)c3)C2)n(C)n1` (configuration not stated), the Potency is reported as inconclusive: 15.8 µM [activator, partial curve]. In the case of `O=C(OCCN1CCN(C2CN(Cc3cn(Cc4ccccc4Cl)nn3)S(=O)(=O)C2)CC1)c1cccs1` (configuration not stated), the Potency is reported as “inactive”. In the case of `CCC1CCCCN1C(=O)CSc1nnc(-c2c[nH]c3ccccc23)o1` (configuration not stated), the Potency is reported as inconclusive: 31.6 µM [activator, single point]. For `O=C1CCSc2ccc(Cl)cc2N1Cc1ccc(Cl)cc1`, the Potency was inconclusive: 12.6 µM [activator, partial curve, poor fit]. In the case of `CCOC(=O)c1[nH]c2ccc(OCC)cc2c1NC(=O)CN1CCC2(CC1)OCCO2`, the Potency is reported as “inactive”. In the case of `CCC(=O)N1CCC2(CC1)Oc1ccc(Cl)cc1C(=O)C21CC(c2ccccc2)=NO1` (configuration not stated), the Potency is reported as inconclusive: 31.6 µM [activator, single point]. In the case of `CNC(=S)N(Cc1cc2cc(C)cc(C)c2[nH]c1=O)C1CCCC1`, the Potency is reported as inconclusive: 39.8 µM [activator, single point]. In the case of `COc1ccc(NC(=O)Nc2ccc(OCc3ccccc3)cc2)cn1`, the Potency is reported as “inactive”. For `COc1ccc(C)cc1NC(=O)C(Sc1nnc(Nc2cc(C)ccc2OC)s1)c1ccccc1` (configuration not stated), the Potency was inconclusive: 31.6 µM [activator, partial curve, poor fit]. In the case of `CC1CCC(NC(=O)c2ccc3c(c2)N(Cc2cccc(F)c2)C(=O)c2ccccc2S3)CC1` (configuration not stated), the Potency is reported as inconclusive: 25.1 µM [activator, single point]. For `CNC(=S)N1CCN(c2c(F)cc3c(=O)c(C(=O)O)cn(C4CC4)c3c2OC)CC1C` (configuration not stated), the Potency was “inactive”. For `COc1ccc(-c2noc(C3CC(=O)N(c4ccc(C)c(F)c4)C3)n2)c(OC)c1` (configuration not stated), the Potency was inconclusive: 31.6 µM [activator, single point]. With `COc1ccc([C@H]2/C=C\CN(S(=O)(=O)c3ccc4ccccc4c3)[C@@H](C)C(=O)N2Cc2ccc(F)cc2)cc1` the Potency was inconclusive: 14.1 µM [activator, partial curve]. With `CCc1ccc(NS(=O)(=O)c2ccc3[nH]cc(C(=O)NC4CCCC4)c(=O)c3c2)cc1` the Potency was active: 28.2 µM. In the case of `Cc1ccc(C)c(NC(=S)N(Cc2ccc(Cl)cc2)Cc2ccc(C(=O)O)cc2)c1`, the Potency is reported as inconclusive: 35.5 µM [activator, partial curve, poor fit]. With `COC(=O)c1cc(NC(=O)c2cc(C(C)(C)C)nn2Cc2cccc(C)c2)ccc1N1CCOCC1` the Potency was inconclusive: 35.5 µM [activator, single point]. For `CCOc1ccc(-n2c(SCC(=O)Nc3cc(C)c(NC(=O)c4ccccc4)cc3OC)nnc2-c2ccncc2)cc1`, the Potency was inconclusive: 14.1 µM [activator, partial curve, poor fit]. With `COc1ccc(OC)c(-c2nc(Nc3ccccc3C)sc2CC(=O)O)c1` the Potency was inconclusive: 28.2 µM [activator, partial curve]. With `CCOC(=O)c1ccccc1NC(=O)CSc1ccc(-c2sc(-c3ccccc3)nc2C)nn1` the Potency was “inactive”. With `COc1ccc(-c2sc(Nc3ccccc3)n[n+]2-c2ccccc2)cc1Br` the Potency was inconclusive: 39.8 µM [activator, single point]. In the case of `CCCC(=O)O[C@H]1C[C@@H](C)N(C(=O)c2ccccc2)c2ccc(C)cc21`, the Potency is reported as inconclusive: 35.5 µM [activator, single point]. With `Nc1nc(NCC2CCCO2)nc(Nc2cccc(F)c2)c1[N+](=O)[O-]` (configuration not stated) the Potency was “inactive”. In the case of `Cc1ccnc(NC(=O)c2ccc(N3C(=O)CCC3=O)cc2)c1`, the Potency is reported as “inactive”. In the case of `COc1cccc(/C=N/Nc2nc(Nc3ccc([N+](=O)[O-])cc3)nc(N3CCCC3)n2)c1O`, the Potency is reported as inconclusive: 25.1 µM [activator, partial curve, poor fit]. With `Cc1cccc(S(=O)(=O)NC(=O)C2(C)CCN2C(=O)Cc2ccc(-c3ccccc3)cc2)c1` (configuration not stated) the Potency was inconclusive: 28.2 µM [activator, single point]. For `CC(C)C[C@@H](CN1CCC[C@H]1CN1C(=O)C(=O)NC[C@@H]1Cc1ccccc1)N1C[C@H](Cc2ccc(O)cc2)N(CCc2ccccc2)C(=O)C1=O`, the Potency was “inactive”. For `CC(=O)Nc1nonc1-c1nnc(SCC(=O)Nc2cc(C)ccc2C)n1-c1ccccc1`, the Potency was “inactive”. For `O=C(c1ccccc1)N1CCC(c2nc(-c3ccc(S(=O)(=O)N4CCOCC4)cc3)no2)CC1`, the Potency was “inactive”. For `COc1ccc(/C=C/C2=CC(C)(C)NC(=S)N2)c(OC)c1`, the Potency was inconclusive: 17.8 µM [activator, partial curve]. For `COCc1cc(C)nc2sc3c(c12)NC(c1ccc(NC(C)=O)cc1)N(c1ccc(C)cc1)C3=O` (configuration not stated), the Potency was inconclusive: 50.1 µM [activator, single point]. For `O=[N+]([O-])c1ccc(Oc2cccc(C(F)(F)F)c2)nc1`, the Potency was “inactive”. For `COc1ccc(-c2cc(C(C)=O)c(C)n2CCC(=O)Nc2cc(C)ccc2OC)cc1`, the Potency was inconclusive: 31.6 µM [activator, single point]. In the case of `Nc1ccccc1Nc1cc(-c2ccccc2)nn1-c1cccc(Cl)c1`, the Potency is reported as inconclusive: 7.08 µM [activator, partial curve]. For `COc1ccc(C(C(=O)NC2CCCCC2)N(C(=O)c2snc(C(N)=O)c2N)c2ccc(OC)cc2OC)cc1` (configuration not stated), the Potency was “inactive”. With `CCN1C(=O)[C@H]2[C@@H](c3ccc(-c4ccc(Cl)c(Cl)c4)cc3)N3CCCC[C@@]3(C(=O)OC)[C@H]2C1=O` the Potency was “inactive”. For `O=C(Nc1ccc(N2CCN(C(=O)c3cccs3)CC2)cc1)c1cccc(F)c1`, the Potency was inconclusive: 35.5 µM [activator, single point]. In the case of `O=C(CCNC(=O)C1CCN(S(=O)(=O)c2ccccc2)CC1)NCc1cccc(C(F)(F)F)c1`, the Potency is reported as inconclusive: 35.5 µM [activator, single point].
